Hit rate of the full screen: of about 230,000 compounds, about 3,600 (1.6%) were called active. The shares of active, inactive and inconclusive entries below differ from those in the screen. Calls follow the shape of the dose curve; as a rule, active = well fitted inhibition curve with a large enough effect (not every such curve was filed as active); inconclusive = small, poorly fitted or top-dose-only effect, or another doubt; inactive = no such curve, though single readings can be large or run the other way. Potencies beside an inconclusive call are fits to weak or partial responses and may not hold up.
Target: Lysine-specific demethylase 4E (Homo sapiens) (UniProt B2RXH2)
UniProt B2RXH2, sequence (B2RXH2 whole entry, looked up, the tested form may be a part): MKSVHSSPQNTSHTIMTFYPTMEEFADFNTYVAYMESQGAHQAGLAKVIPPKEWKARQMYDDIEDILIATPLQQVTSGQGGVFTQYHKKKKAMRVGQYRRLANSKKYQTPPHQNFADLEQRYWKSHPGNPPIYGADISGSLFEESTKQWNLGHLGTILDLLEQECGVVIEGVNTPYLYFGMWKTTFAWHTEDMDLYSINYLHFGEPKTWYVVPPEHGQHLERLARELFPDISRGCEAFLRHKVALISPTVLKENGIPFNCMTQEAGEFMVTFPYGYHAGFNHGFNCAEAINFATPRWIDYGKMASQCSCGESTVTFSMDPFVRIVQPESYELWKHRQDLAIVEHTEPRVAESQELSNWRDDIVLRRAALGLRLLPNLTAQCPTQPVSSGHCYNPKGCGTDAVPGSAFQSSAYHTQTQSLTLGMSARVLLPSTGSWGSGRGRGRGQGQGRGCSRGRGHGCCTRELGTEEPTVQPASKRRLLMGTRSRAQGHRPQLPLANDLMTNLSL
Test: qHTS Assay for Inhibitors of Human Jumonji Domain Containing 2E (JMJD2E)
Settings: JMJD2E catalytic domain, FDH-coupled NADH fluorescence (FDH is formaldehyde dehydrogenase); series mostly up to 57.1 µM; activity change, negative = inhibition: at the top concentration
Also: nearly all actives have a fitted effect of over 50% in size.
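For activity change, negative = inhibition in this document: 0% = wells with enzyme and -100% = buffer wells without enzyme.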
Potency is read from the fitted curve at half-maximal effect; tags tell the direction and shape of the fitted curve.

Q: How did the Potency turn out when `COc1ccc(CC(=O)N(Cc2cc3cc(OC)ccc3[nH]c2=O)C(C)C)cc1` was run?
A: inconclusive: 28.2 µM [inhibitor, partial curve]

Q: `COC(=O)c1ccc(NC(=O)Cn2nc(C)cc2C)cc1` was tested. Which Potency did it give?
A: inconclusive: 28.2 µM [inhibitor, single point]

Q: For `Cc1oc(/N=C/c2ccc(O)cc2O)c(C#N)c1C`, which Potency is on record?
A: inconclusive: 31.6 µM [inhibitor, partial curve]

Q: `CC(=O)NC(=S)Nc1ccc(NC(=O)c2cccs2)cc1` was tested. Which “activity change, negative = inhibition” value did it give?
A: inactive: -0.402%

Q: `CCOc1cc(C2NN=C(c3ccccc3)S2)ccc1OCc1ccccc1Cl` (stereo not drawn) was tested. Which Potency did it give?
A: inconclusive: 3.55 µM [inhibitor, partial curve]

Q: With `COc1ccc2[nH]c(=O)c(CN(CCN(C)C)C(=O)NCc3ccccc3)cc2c1` as the compound, how does the Potency read?
A: inconclusive: 31.6 µM [inhibitor, partial curve]

Q: `Cc1ccc(-n2[nH]c(C)c(/C=N/NC(=O)c3ccc([N+](=O)[O-])cc3)c2=O)c(C)c1` was tested. Which Potency did it give?
A: inconclusive: 39.8 µM [inhibitor, single point]

Q: Which Potency does the source give for `CCOC(=O)N1CCC(c2cc(=O)n3[nH]c(C)c(-c4ccc(F)cc4)c3n2)CC1` here?
A: inconclusive: 25.1 µM [inhibitor, single point]

Q: How did the Potency turn out when `Cc1cccc(N2CCN(C(=S)NC3CCCCC3)CC2)c1C` was run?
A: inconclusive: 31.6 µM [inhibitor, single point]

Q: Which “activity change, negative = inhibition” value does the source give for `CN(C1CC(C)(C)N(O)C(C)(C)C1)S(=O)(=O)CC12CCC(CC1=O)C2(C)C` (stereo not drawn) here?
A: inactive: -13.3%

Q: For `Cc1ccc(NC(=O)C(C)Sc2nnc(-c3cccnc3)n2-c2ccccc2)cc1` (stereo not drawn), which “activity change, negative = inhibition” value is on record?
A: inactive: -2.08%

Q: For `COc1cc(C2NC(=O)C(C#N)=C(Nc3cccc(C)c3)S2)ccc1O` (stereo not drawn), which Potency is on record?
A: inconclusive: 39.8 µM [inhibitor, single point]

Q: With `CC[C@@H](C)CN1C(=O)N[C@@H](c2ccccc2)C(C(C)=O)=C1C` as the compound, how does the activity change, negative = inhibition read?
A: inactive: 8.71% [at 11.4 µM]

Q: With `CCOc1ccc(CCNC(=O)C(CCC(N)=O)NC(=O)OCc2ccccc2)cc1OCC` (stereo not drawn) as the compound, how does the “activity change, negative = inhibition” value read?
A: inactive: 6.33%

Q: How did the Potency turn out when `Cc1ccc(C)n1CCN1CCN(CC(=O)Nc2cc(C(F)(F)F)ccc2Cl)CC1` was run?
A: inconclusive: 39.8 µM [inhibitor, single point]

Q: With `CC1CN(S(=O)(=O)c2ccc(C(=O)Nc3nnc(-c4ccco4)o3)cc2)CC(C)O1` (stereo not drawn) as the compound, how does the Potency read?
A: inconclusive: 39.8 µM [inhibitor, single point]

Q: With `O=C1c2ccccc2C(Nc2ccccc2)N1c1ccc(Cl)cn1` (stereo not drawn) as the compound, how does the Potency read?
A: inconclusive: 39.8 µM [inhibitor, single point]

Q: With `CC(=O)Nc1ccc(NC(=O)COC(=O)Cc2c[nH]c3ccccc23)cc1` as the compound, how does the “activity change, negative = inhibition” value read?
A: inactive: 2.73%

Q: For `CC1(C)Cc2nc3sc4c(=O)n(CC(=O)NCc5ccccc5)cnc4c3cc2CO1`, which Potency is on record?
A: inconclusive: 8.91 µM [inhibitor, single point]

Q: With `C[C@@H]1C(=O)O[C@H]2[C@@H](O)[C@@]34[C@H]5CC(C(C)(C)C)[C@]36[C@@H](OC(=O)[C@@H]6O)O[C@@]4(C(=O)O5)[C@@]12O` (stereo partly drawn) as the compound, how does the “activity change, negative = inhibition” value read?
A: inactive: 7.84%

Q: Which Potency does the source give for `COc1ccc(-c2cn3ccc(C)cc3n2)cc1` here?
A: inconclusive: 28.2 µM [inhibitor, partial curve]

Q: For `Cc1cc(NC(=O)COC(=O)c2n[nH]c3ccccc23)no1`, which Potency is on record?
A: inconclusive: 28.2 µM [inhibitor, single point]

Q: For `CC(=O)Nc1ccc(C(=O)OCc2ccc(Br)cc2)cc1`, which Potency is on record?
A: inconclusive: 28.2 µM [inhibitor, partial curve]

Q: `S=c1[nH]nc(-c2ccco2)n1/N=C/c1cccs1` was tested. Which “activity change, negative = inhibition” value did it give?
A: inactive: -11.6%

Q: For `COc1cccc(/C=N/Nc2nc(-c3cccnc3)nc3ccccc23)c1`, which Potency is on record?
A: inconclusive: 31.6 µM [inhibitor, single point]

Q: `CCCOc1ccc(C(=O)Nc2c[nH]c(=O)[nH]c2=O)cc1` was tested. Which Potency did it give?
A: inconclusive: 39.8 µM [inhibitor, single point]

Q: Which Potency does the source give for `CCN(CC)c1ccc(/C=N/NC(=S)NCc2ccco2)cc1` here?
A: inconclusive: 28.2 µM [inhibitor, partial curve]

Q: Which “activity change, negative = inhibition” value does the source give for `CC(NC1CCCCC1)C(=O)NN=C(c1ccccc1)c1ccccc1` (stereo not drawn) here?
A: inactive: 17.2%

Q: For `COC(=O)c1ccc(C(=O)OC)c(NC(=O)CS(=O)(=O)Cc2ccccc2)c1`, which Potency is on record?
A: inconclusive: 28.2 µM [inhibitor, partial curve]

Q: Which Potency does the source give for `Cc1cc(N)n2ncc(-c3ccccc3)c2n1` here?
A: inconclusive: 35.5 µM [inhibitor, single point]

Q: For `FC(F)Sc1ccc(NC(=S)NC(c2ccccc2)c2ccccc2)cc1`, which “activity change, negative = inhibition” value is on record?
A: inactive: 0.398%

Q: With `C/C(CC(=O)Nc1ccc2c(c1)OCO2)=N\NC(=O)c1ccccc1N` as the compound, how does the “activity change, negative = inhibition” value read?
A: inactive: -0.422%

Q: Which Potency does the source give for `COc1ccc(OC)c(C2/C(=C(/O)c3cnn(-c4ccccc4)c3C)C(=O)C(=O)N2CCN(C)C)c1` (stereo not drawn) here?
A: inconclusive: 31.6 µM [inhibitor, single point]

Q: With `Cc1cc(C)n2cc(COc3ccccc3)nc2n1` as the compound, how does the Potency read?
A: inconclusive: 28.2 µM [inhibitor, partial curve]

Q: Which Potency does the source give for `O=c1ccc2cc3c([nH]c4ccc(Br)cc43)oc-2c1O` here?
A: inconclusive: 35.5 µM [inhibitor, single point]

Q: With `CNC(=O)c1c(NC(=O)c2cccc(N3C(=O)CCC3=O)c2)sc2c1CCCC2` as the compound, how does the Potency read?
A: inconclusive: 35.5 µM [inhibitor, single point]

Q: With `CCCCNC(=S)Nc1cc([N+](=O)[O-])ccc1C` as the compound, how does the “activity change, negative = inhibition” value read?
A: inactive: -1.47%

Q: With `O=C(NCCc1csc(-c2ccc(C(F)(F)F)cc2)n1)c1cccs1` as the compound, how does the Potency read?
A: inconclusive: 39.8 µM [inhibitor, single point]

Q: Which Potency does the source give for `O=C(N/N=C/C=C/c1ccco1)c1ccccc1Cl` here?
A: inconclusive: 35.5 µM [inhibitor, single point]

Q: Which Potency does the source give for `CCN(CC)CCCNC(=O)CCC(=O)NNc1nc2ccccc2c2nc(C)nn12` here?
A: inconclusive: 8.91 µM [inhibitor, partial curve]

Q: How did the “activity change, negative = inhibition” value turn out when `Cc1ccccc1-c1cc(-n2ccnc2)ncn1` was run?
A: inactive: 3.9%

Q: Which Potency does the source give for `COc1ccc(-n2cnc3c(sc4nccc(N(C)C)c43)c2=O)cc1` here?
A: inconclusive: 31.6 µM [inhibitor, partial curve]

Q: With `Cc1ccc(C)c(-n2c3nc(=O)n(C)c(=O)c-3cc3ccccc32)c1` as the compound, how does the Potency read?
A: inconclusive: 1.41 µM [inhibitor, single point]
